About 31,000 (8.9%) of roughly 350,000 compounds were called active. The shares of active, inactive and inconclusive entries below differ from those in the screen. Calls come from the whole dose curve; as a rule, active = well fitted inhibition curve with a large enough effect; inconclusive = small, poorly fitted or top-dose-only effect; inactive = no such curve, though single readings can be large or run the other way. Potencies beside an inconclusive call are fits to weak or partial responses and may not hold up. More than one record can exist for a structure, and the calls need not agree.
These compounds were tested against Histone-lysine N-methyltransferase EHMT2 (Homo sapiens) (UniProt Q96KQ7) (assay: qHTS Assay for Inhibitors of Histone Lysine Methyltransferase G9a). Details: G9a H3K9 monomethylation, AlphaScreen, 2 h; activity, negative = inhibition: at 59 µM (top of the series) unless noted.
Procedure, shortened: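 Quantitative HTS format: methyltransferase activity on a biotin-tagged H3K9 peptide is measured by AlphaScreen, using a rabbit anti-monomethyl-H3K9 antibody with streptavidin donor and anti-IgG acceptor beads. Final levels are 20 nM enzyme, 500 nM peptide, 20 uM SAM; 2 h RT.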
% is set by controls: 0 for no effect and ±100 for the full control effect; potency is the fitted concentration of half-maximal effect; tags give direction and shape of the fitted curve.
Note: nearly all actives have a fitted effect of over 75% in size.

UniProt Q96KQ7, sequence (Q96KQ7 whole entry, looked up): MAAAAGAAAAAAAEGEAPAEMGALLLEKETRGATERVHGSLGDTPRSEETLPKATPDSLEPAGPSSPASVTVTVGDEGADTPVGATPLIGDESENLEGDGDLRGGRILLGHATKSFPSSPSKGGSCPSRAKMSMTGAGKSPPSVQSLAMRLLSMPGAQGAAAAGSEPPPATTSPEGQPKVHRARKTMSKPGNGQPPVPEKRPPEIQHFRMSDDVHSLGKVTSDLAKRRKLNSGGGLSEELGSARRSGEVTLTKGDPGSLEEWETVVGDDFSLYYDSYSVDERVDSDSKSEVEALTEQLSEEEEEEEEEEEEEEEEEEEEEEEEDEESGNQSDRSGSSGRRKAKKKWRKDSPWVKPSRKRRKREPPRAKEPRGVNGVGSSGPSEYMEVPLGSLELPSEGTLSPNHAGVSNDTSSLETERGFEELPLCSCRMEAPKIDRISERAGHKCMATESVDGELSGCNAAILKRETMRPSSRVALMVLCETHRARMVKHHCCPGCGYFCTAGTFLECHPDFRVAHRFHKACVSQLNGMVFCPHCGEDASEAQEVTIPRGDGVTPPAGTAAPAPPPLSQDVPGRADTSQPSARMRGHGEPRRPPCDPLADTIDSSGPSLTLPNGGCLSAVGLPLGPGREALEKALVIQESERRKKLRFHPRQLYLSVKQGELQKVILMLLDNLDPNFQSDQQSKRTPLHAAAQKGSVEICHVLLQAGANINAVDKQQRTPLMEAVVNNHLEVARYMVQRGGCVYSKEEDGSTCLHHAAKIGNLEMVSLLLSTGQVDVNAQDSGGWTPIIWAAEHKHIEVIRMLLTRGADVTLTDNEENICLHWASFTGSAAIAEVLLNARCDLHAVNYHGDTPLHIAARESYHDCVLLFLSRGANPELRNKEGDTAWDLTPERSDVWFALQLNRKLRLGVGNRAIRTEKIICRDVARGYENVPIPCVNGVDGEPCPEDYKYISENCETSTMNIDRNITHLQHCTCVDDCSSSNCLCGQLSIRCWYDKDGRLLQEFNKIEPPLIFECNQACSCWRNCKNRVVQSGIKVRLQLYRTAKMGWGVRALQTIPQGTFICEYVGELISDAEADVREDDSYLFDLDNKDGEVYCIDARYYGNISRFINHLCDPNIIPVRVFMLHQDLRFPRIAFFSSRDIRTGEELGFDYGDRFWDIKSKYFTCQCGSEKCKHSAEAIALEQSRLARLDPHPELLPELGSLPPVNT

SMILES	activity, negative = inhibition	Potency
CCOC(=O)C1=C(COC(=O)[C@H](C)NS(=O)(=O)c2ccc(NC(C)=O)cc2)NC(=O)NC1C (some centres undefined)	inactive: 20.7% [at 12.7 µM]	–
Cc1c(NC(=O)CCSc2ccc(Cl)cc2)c(=O)n(-c2ccccc2)n1C	inactive: 11.5% [at 102 µM]	–
COC(=O)c1ccc(N2Cc3ccccc3/C2=N\C(=O)Nc2ccccc2)cc1	inactive: -9.15%	–
CN(Cc1ncc[nH]1)Cc1cn(-c2ccccc2)nc1-c1ccc2c(c1)OCO2	–	inconclusive: 44.7 µM [inhibitor, single point]
CCC(C)NC(=O)c1ccc2c(c1)N=C(C)c1cc(C)ccc1S2 (centres undefined)	–	inconclusive: 7.08 µM [inhibitor, single point]
CCCN(C(=O)C1CC(=O)N(c2ccccc2C(C)CC)C1)C1CCS(=O)(=O)C1 (centres undefined)	–	inconclusive: 5.62 µM [inhibitor, single point]
NC(=O)CSC1=N/C(=C\c2ccco2)C(=O)N1c1ccc(OC(F)F)cc1	–	inconclusive: 39.8 µM [inhibitor, full curve]
COc1ccc(-n2c(Cc3cccn3C)nnc2SCC(=O)Nc2ccccc2)cc1	–	active: 28.2 µM
O=C(C1=C(O)C(=O)N(Cc2ccco2)C1c1cccs1)c1cccs1 (centres undefined)	–	inconclusive: 0.158 µM [inhibitor, full curve, poor fit]
COc1ccc2c(c1)c1c(c(=O)n(-c3cccc(C)c3)c(=O)n1CC(=O)N1CCCC1)n2C	–	inconclusive: 6.31 µM [inhibitor, partial curve, poor fit]
O=C(c1ccc(CS(=O)(=O)c2ccc(Br)cc2)o1)N1CCN(c2ccccn2)CC1	–	inconclusive: 44.7 µM [inhibitor, partial curve]
CC(Sc1nc2ccccc2o1)C(=O)O (centres undefined)	–	active: 50.1 µM
N/C(=N\OC(=O)Cc1ccc([N+](=O)[O-])cc1)c1ccccn1	–	inconclusive: 44.7 µM [inhibitor, partial curve, poor fit]
CCOc1ccc(OCC(=O)Nc2ccccc2N2CCCC2)cc1	–	active: 50.1 µM
CC(C)(C)OC(=O)N1CCC(c2c(C(=O)NCc3ccccn3)cnn2-c2ccc(F)cc2)CC1	inactive: 51.9%	–
COc1cccc(NC(=O)COC(=O)c2nc(Cl)ccc2Cl)c1	–	inconclusive: 89.1 µM [inhibitor, single point]
CC(=O)[C@]1(O)CCC2C3C=C(Cl)C4=CC(=O)C5CC5[C@@]4(C)C3CC[C@]21C (some centres undefined)	inactive: -38.2% [at 2.33 µM]	–
CC(=O)N(CC1CCCO1)c1nnc(-c2ccccn2)s1 (centres undefined)	–	active: 56.2 µM
COc1cccc(NC(=O)C(=O)NCCc2csc3nc(-c4ccccc4C)nn23)c1	inactive: 8.07%	–
CC1(C)SC2C(NC(=O)COc3ccccc3)C(=O)N2C1C(=O)O (centres undefined)	–	active: 39.8 µM
CCCc1cc(=O)[nH]c(SCC(=O)Nc2sccc2C#N)n1	–	inconclusive: 44.7 µM [inhibitor, partial curve, poor fit]
CCCC(C)c1nnc(NC(=O)CN2C(=O)c3ccccc3C2=O)s1 (centres undefined)	–	active: 7.94 µM

SMILES	activity, negative = inhibition	Potency
Cc1ccc(S(=O)(=O)Nc2cccc(-c3ccc4nnc(C)n4n3)c2)s1	–	inconclusive: 89.1 µM [inhibitor, single point]
C=CCNC(=S)N1CCN(c2ccccc2Cl)CC1	–	inconclusive: 89.1 µM [inhibitor, single point]
O=C(CNC(=O)c1cc(S(=O)(=O)N2CCCCC2)ccc1N1CCOCC1)Nc1ccc(F)c(F)c1	inactive: 15.5% [at 0.501 µM]	–
CCOC(=O)c1ccc2[nH]c3c(c2c1)CCCC3	–	active: 35.5 µM
CCCn1cc(S(=O)(=O)c2cc(C)ccc2C)c(=O)c2cc(F)c(N3CCCCCC3)cc21	inactive: 7.02%	–
CC(C)CC(=O)Nc1nnc2n1CCS2	–	inconclusive: 11.2 µM [inhibitor, partial curve]
Cc1nc(/C=[N+](\[O-])C(C)(C)/C=N/O)n(O)c1C	–	inconclusive: 2.24 µM [inhibitor, partial curve, poor fit]
CCCc1nc2sc3c(c2c(=O)n1NC(=O)CCCl)CCCC3	–	inconclusive: 89.1 µM [inhibitor, single point]
COc1ccc(N=C2C(=O)N3CCCc4cccc2c43)cc1	–	inconclusive: 14.1 µM [inhibitor, partial curve, poor fit]
Cc1ccc(S(=O)(=O)N2CCCC(C(=O)N3CCN(C)CC3)C2)cc1 (centres undefined)	–	active: 10 µM
COC(=O)c1cc(=O)n(Cc2ccc(F)cc2)c(=Nc2ccccc2)s1	inconclusive: -63.3% [inhibitor]	–
C=CCc1ccc(OCCCCOc2ccc(C(=O)O)cc2)c(OC)c1	–	inconclusive: 79.4 µM [inhibitor, partial curve, poor fit]
Cc1cc(C)n(CC(=O)N/N=C/c2cc(Br)cc([N+](=O)[O-])c2O)n1	–	inconclusive: 44.7 µM [inhibitor, partial curve, poor fit]
CCOCCCNCc1cc(Br)ccc1OCc1ccccc1	–	inconclusive: 89.1 µM [inhibitor, single point]
CCOC(=O)/C(=C\c1ccc(Cl)cc1)c1nc2sc(C)c(C)c2c(=O)[nH]1	–	active: 25.1 µM
O=C(Nc1ccc(OCC(=O)N2CCOCC2)cc1)c1cncc(Br)c1	–	inconclusive: 89.1 µM [inhibitor, single point]
O=C1CN(Cc2cc(=O)oc3cc4c(cc23)CCC4)CCN1	–	inconclusive: 44.7 µM [inhibitor, partial curve, poor fit]
CCOc1ccccc1Nc1nnc(SCC(=O)NC(=O)c2cccn2C)s1	–	inconclusive: 4.47 µM [inhibitor, full curve]
Cn1cc(/C=C2\SC(=S)N(NC(=O)c3ccccc3)C2=O)c2ccccc21	inactive: 1.07%	–
Cc1cccc(Cc2c(C)nc3nc(SCC(=O)NCc4ccc(F)cc4)nn3c2C)c1	inactive: -34.6%	–
O=C(NC(NC(=S)Nc1ccc(Cl)cc1)C(Cl)(Cl)Cl)c1ccco1 (centres undefined)	–	inconclusive: 89.1 µM [inhibitor, single point]
COc1ccc(Cl)cc1N(C)C(=O)Cc1noc2ccc(C)cc12	–	inconclusive: 39.8 µM [inhibitor, single point]

— PubChem BioAssay AID504332 (National Center for Advancing Translational Sciences (NCATS), 2011)
